Experimental data taken from PubChem BioAssay AID1963576 (National Center for Advancing Translational Sciences (NCATS), 2024).
The whole screen tested about 46,000 compounds, of which about 60 (0.1%) were called active. Another 3% or so got no clear call; they are omitted. Calls follow the shape of the dose curve; as a rule, active = well fitted inhibition curve with a large enough effect; inconclusive = small, poorly fitted or top-dose-only effect; inactive = no such curve, though single readings can be large or run the other way. The list shows a part of the results.

experiment: Primary qHTS assay for Inhibitors of ovarian cancer metastasis using an organotypic tumor microenvironment (TME) model.; also: nearly all actives have a fitted effect of over 65% in size;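 as to activity change, negative = inhibition: plate controls were DMSO wells for no effect and tomatine positive control wells for full effect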; conditions: SKOV3ip1-GFP adhesion/invasion on 3D omental model, fluorescence; series mostly up to 45.8 µM; activity change, negative = inhibition: at the top concentration
Method in brief: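 A 3D layer of primary human omental fibroblasts, mesothelial cells, fibronectin and collagen I, grown 48 hr, received SKOV3ip1-GFP cells in serum-free medium plus compounds at 0.36-46 umol/L. After 2 hr RT and 16 hr 37 C, fixed adherent GFP cells were counted; normalized to DMSO and tomatine.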

Activity change, negative = inhibition, inactive:
CCCSc1ncc(Cl)c(C(=O)Nc2ccc(S(=O)(=O)Nc3ncccn3)cc2)n1 1.07%
COc1ccc(NC(=O)CSc2ncc3c(n2)-c2cc(Cl)ccc2N(Cc2ccccc2F)S3(=O)=O)cc1 166%
COC(=O)c1cc(S(=O)(=O)NCC2CCN(Cc3ccc(F)cc3)CC2)cn1C 5.9%
CCOC(=O)c1c(NC(=O)CSc2cn(CCNC(=O)c3ccccc3F)c3ccccc23)sc2c1CCC2 17.9%
COc1cc(-c2nnc(SCCOc3ccc(Cl)cc3C)o2)cc(OC)c1OC 3.01%
Fc1ccc(-n2ncc3c(NCCCN4CCOCC4)ncnc32)cc1 1.91%
COc1cc(NC(=O)CCc2c(C)nn(-c3ccc4nncn4n3)c2C)cc(OC)c1OC -0.445%
Cc1ccc(Cl)cc1N1CCN(S(=O)(=O)c2ccc3[nH]c4c(c3c2)CCCCC4)CC1 -13.7%
CC=C1C2C=C(C)CC1(N)c1ccc(=O)[nH]c1C2 (centres undefined) 6.34%
COc1cccc(CNC(=O)c2ccc(CSc3nc4ccncc4n3Cc3cccc(C)c3)cc2)c1 5.76%
CC(C)COC(=O)/C(C#N)=C\c1ccc(-c2ccccc2Cl)o1 1.39%
COc1ccc(NC(=O)CSc2cn(CC(=O)N3CCOCC3)c3ccccc23)cc1OC 1.52%
O=C(Nc1ccccc1)C(Cc1ccccc1)N1Cc2ccccc2C1=O (centres undefined) 20.4%
Cc1ccc(C)c(NC(=O)CCN2C(=O)c3ccccc3Sc3ncccc32)c1 -25.6%
O=C(CSc1ncc(S(=O)(=O)c2ccc(Br)cc2)c(=O)[nH]1)NCc1ccc(Cl)cc1 7.42%
Cc1ccc(Cl)c2c1N[C@@H](c1ccc(C(=O)O)cc1)[C@H]1CC=C[C@@H]21 -11.1%
COc1ccc(-c2cc(C(=O)NCc3cc(OC)c(OC)c(OC)c3)[nH]n2)cc1 -11.7%
CCc1ccc(S(=O)(=O)c2nnn3c2nc(N2CCC(C)CC2)c2cc(Cl)ccc23)cc1 -0.396%
Cc1cccc(OCC(=O)Nc2c(C)ccc3nsnc23)c1C -16.9%
COc1cccc(N2CCN(S(=O)(=O)c3cc(Br)cc4c3N(C(=O)C3CC3)CC4)CC2)c1 8.31%
COc1ccc(C2=NS(=O)(=O)N(C)C(C(=O)Nc3cc(C)ccc3O)=C2)cc1OC 9.65%
CCOC(=O)c1c(C)n(-c2ccccc2)c2ccc(OC(=O)c3ccccc3)cc12 -2.22%
Cc1ccc(C)c(CSc2nc3ncccc3[nH]2)c1 -0.131%
CN1CCN(C(CNC(=O)C(=O)Nc2ccccc2)c2ccc3c(c2)OCO3)CC1 (centres undefined) 0.643%
COc1ccccc1N1CCN(c2cc(C)nc3nncn23)CC1 1.93%
CCOc1ccc(CNC(=O)CSc2c3c(nc4ccc(Cl)cc24)CCCC3)cc1 3.87%
COc1ccc(C)c2sc(N3CCN(C(=O)c4ccco4)CC3)nc12 4.59%
CC(C)c1cc(-c2nc(-c3cccc(Cl)c3)no2)n[nH]1 -21.8%
Cc1ccc(CNC(=O)Cn2c3ncccc3c(=O)n2-c2ccc(C)cc2)cc1 -5.77%
Cc1ccc2oc(C(=O)Nc3sc4c(c3C(=O)NCc3ccco3)CCC4)cc(=O)c2c1 -8.81%
Cc1nc2c(c(C)nn2C(C)(C)C)c(C)c1CCC(=O)Nc1ccc(F)cc1 -2.15%
Cc1nn2c(=O)cc(COC(=O)c3ccc(NC(=O)COc4ccccc4F)cc3)nc2s1 -5.45%
C=C(C)[C@@H]1CC[C@]2(C(=O)O)CC[C@]3(C)[C@H](CC[C@@H]4[C@@]5(C)CC[C@H](O)C(C)(C)[C@@H]5CC[C@]43C)[C@@H]12 -8.34%
CC(=O)c1ccc(N2CCN(C(=O)CCCn3c(=O)[nH]c4ccsc4c3=O)CC2)cc1 11.4%
Cc1ccc(Cn2c(CN3CCN(c4cccc(Cl)c4)CC3)nc3c2c(=O)n(C)c(=O)n3C)cc1 -2.68%
Cc1nn(CC(=O)NCc2ccc(N(C)C)cc2)c(=O)c2nn(-c3ccccc3)c(C)c12 -5.23%
COCCCNC(=O)c1ccc(Cn2c(=O)c3cccn3c3cccnc32)cc1 -7.46%
CCC(=C(CC)c1ccc(O)cc1)c1ccc(O)cc1 -16.9%
COc1ccccc1CNC(=O)C1CCN(c2nnc(C)c3c(C)n(-c4ccccc4)nc23)CC1 -2.54%
CC(C)CC(=O)OCc1cc(=O)n2nc(C3CCCCC3)sc2n1 0.671%
COc1ccc(NC(=O)CC(C)S(=O)(=O)c2cc3c(cc2C)NC(=O)CO3)cc1OC (centres undefined) -7.19%
O=C(Nc1nnc(S(=O)(=O)N2CCCCCC2)s1)c1ccc(Cl)cc1 7.31%
CSc1nn(CC(=O)Nc2cc(C)ccc2C)c(N)c1S(=O)(=O)c1ccccc1 1.91%
Cc1ccc2c(=O)cc(C(=O)Nc3c(C(=O)c4ccc(F)cc4)oc4ccccc34)oc2c1C -7.17%
NC(N)=Nc1nc(CSCCC(N)=NS(N)(=O)=O)cs1 12.5%
COc1ccc(CCNC(=O)c2c(C)oc3ncn(CC(C)C)c(=O)c23)c(OC)c1 2.54%
Cc1cccc(C)c1OC(=O)CSc1nnc(-c2ccc3c(c2)OCO3)o1 -5.87%
CCC(CC)C(=O)Nc1cc(-c2nc3cccnc3s2)ccc1C -2.82%
CCOC(=O)Cn1c(=O)oc2cc(S(=O)(=O)N3CCN(c4ccc(F)cc4)CC3)ccc21 12.1%
Cc1ccc(NC(=O)CN2C(=O)CC(c3ccc(C)c(C)c3)=Nc3ccccc32)cc1 12.7%
Cc1ccc(C(C)C)c(OCC(=O)Nc2ccc(O)c(-c3nc4cc(Cl)ccc4o3)c2)c1 5.61%
CCCOc1cccc(C(=O)Nc2cccc(NC(=O)c3ccc(Cl)cc3Cl)c2)c1 -6.78%
CC(C)C(=O)Nc1nnc(S(=O)(=O)N2c3ccccc3CC2C)s1 (centres undefined) 3.72%
CCSc1nc2ccccc2c(OCc2cc(C(=O)OC)ccc2OC)c1C(=O)OC -11.4%
COC(=O)c1c(C)sc(-c2c(-c3ccc(OC)c(F)c3)[nH]c3c2c(=O)n(C)c(=O)n3C)c1O -9.24%
CCS(=O)(=O)Nc1ccc(-c2cn3c(C)csc3n2)cc1 -2.82%
COc1ccc(C(=O)Oc2cc(-c3ccc(OC)c(OC)c3)cc(=O)c3c(C)oc(C)c23)cc1 -2.72%
COc1ccc(CNC(=O)CN(C)S(=O)(=O)c2ccc3c(c2)c(=O)n(C)c(=O)n3C)cc1 4.31%
COc1cccc(C(c2sc3nc(-c4ccco4)nn3c2O)N2CCN(C)CC2)c1 (centres undefined) 8.72%
O=C(Cn1cc(C(=O)c2cccs2)c2ccccc21)Nc1ccc(Br)cc1 -10.1%
CCN(c1cccc(C)c1)S(=O)(=O)c1c(C)nc2sc(C)cn2c1=O 1.73%
CCN1C(=O)c2ccccc2S(=O)c2ccc(C(=O)NCc3ccc(Cl)cc3)cc21 (centres undefined) -21.9%
O=C1CCSC2(C(=O)N(Cc3ccc(F)cc3)c3ccccc32)N1c1cccc(F)c1 (centres undefined) -19.4%
CCOC(=O)c1c(-c2ccccc2)oc2ccc(OCc3cccc(Br)c3)cc12 -3.13%
CCCNC(=O)c1c(NC(=O)c2ccccc2)sc2c1CCC(C(C)(C)C)C2 (centres undefined) -14.8%
Cc1ccc(CSc2nc3ccncc3n2Cc2nc(-c3ccccc3C)oc2C)cc1 44.3%
Cc1cccc(N2C(=O)N(Cc3cccc(C#N)c3)c3ccccc3S2(=O)=O)c1 -8.48%
O=C(Cn1c(=O)n(Cc2ccc(C(=O)NCc3ccc4c(c3)OCO4)cc2)c(=O)c2ccccc21)Nc1ccccc1F 60.4%
O=C(CCS(=O)(=O)c1cc(Br)cc2c1N(C(=O)C1CC1)CC2)N1CCN(c2cccc(C(F)(F)F)c2)CC1 -26.9%
COc1ccc(CNC(=O)c2cccn2-c2nnc(N3CCCCC3)s2)c(OC)c1 54%
CC(C)c1ccccc1NC(=O)Cn1cnc2c1c(=O)n(C)c(=O)n2C 2.77%
COc1ccc2c(c1)c1c(c(=O)n(-c3cccc(C)c3)c(=O)n1CC(=O)NCc1ccc(C)cc1)n2C 4.75%
CC(C)(C)c1ccc(C(=O)NC(Cc2c[nH]c3ccccc23)C(=O)OCC(=O)c2ccc(Br)cc2)cc1 (centres undefined) 25.8%
COc1ccc(CNC(=O)c2sc3nc4n(c(=O)c3c2C)CCC4)cc1 17.2%
CCCc1nnc(NC(=O)C(CC)Sc2nnc3c4ccccc4n(C)c3n2)s1 (centres undefined) 2.77%
CC(C)N(Cc1nc(-c2ccc(Cl)cc2)no1)C(=O)c1ccco1 11.7%
COC(=O)c1cc(C)nc2c1c(=O)nc(SCc1ccccc1Cl)n2C1CC1 7.65%
Cc1ccc(OCC(=O)Nc2ccc3nn(-c4ccc(C)cc4)nc3c2)cc1 7.32%
Nc1ncnc2c1ncn2[C@@H]1O[C@H](CO)C[C@@H]1O 8.59%
COc1ccccc1N1CCN(C(=O)CNS(=O)(=O)c2ccc(Br)s2)CC1 -0.828%

outcome, inactive:
O=C(Nc1ccc2nc(SCC(=O)N3CCCc4ccccc43)sc2c1)c1cccc(F)c1
Cc1ccc2c(c1)N(CCC(=O)NCc1ccc(F)cc1)C(=O)CO2
COc1cccc(N2CCN(C(=O)c3ccc4c(=O)n(CCc5ccccc5)c(=O)[nH]c4c3)CC2)c1
Cc1c(CC(=O)NCCc2ccccc2F)c(=O)oc2c(C)c3occ(C(C)(C)C)c3cc12
Cc1nc(N2C(=O)c3oc4ccccc4c(=O)c3C2c2ccccc2F)sc1C (centres undefined)
Cc1cccc(-c2noc(CN(C(=O)COc3ccc(C(C)C)cc3)C(C)C)n2)c1
Cc1cccc(N2C(=O)CSC23C(=O)N(Cc2cccc(F)c2)c2ccccc23)c1 (centres undefined)
Cn1c(C(=O)NCc2cccc(Cl)c2)cc2oc3ccccc3c21
O=[N+]([O-])c1ccc(O)c(-c2ccnc3cc(-c4ccccc4)nn23)c1
COc1ccc(Nc2c(-c3ccsc3)nc3nc(C)cc(C)n23)cc1
COc1ccc(CCNC(=O)CS(=O)(=O)Cc2nc(-c3cccc(Cl)c3)oc2C)cc1OC
COc1ccc(-c2cc(C(=O)NCCc3ccccc3)c3c(-c4ccc(Cl)cc4)[nH]nc3n2)cc1
COc1ccc(-n2ccn(CC(=O)Nc3ccc(C)cc3C)c(=O)c2=O)cc1
CCc1cccc(NS(=O)(=O)c2ccc3c(c2)N(CC(=O)OC)C(=O)CS3)c1
